The other results are listed elsewhere or left out.
Biological target: T1, OsWOX13 (Oryza sativa, UniProt Q5QMM3 1-267)
T1 sequence: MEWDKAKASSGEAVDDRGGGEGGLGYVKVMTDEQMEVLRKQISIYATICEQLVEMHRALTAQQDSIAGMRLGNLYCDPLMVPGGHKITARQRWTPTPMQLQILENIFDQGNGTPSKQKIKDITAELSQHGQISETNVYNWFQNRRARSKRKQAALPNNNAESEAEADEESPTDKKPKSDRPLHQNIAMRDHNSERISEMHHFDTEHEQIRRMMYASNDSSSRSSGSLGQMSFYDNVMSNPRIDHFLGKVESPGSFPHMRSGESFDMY
Assay: protein-binding microarray (RPBM); PBS, 2% BSA, 51.3 ng/ul salmon testes DNA, 50 uM zinc acetate, 200 nM TF, 25 C, 1 h; high values mean tight binding
Details: protein: recombinant; tags: N-terminal polyhistidine and DsRed monomer fusion (pET32a); label: CyDye5-dUTP incorporated in the synthesized complementary strand; 3' TTTTT single-stranded linker to array surface; dsDNA, one strand shown
Summary of the method: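 Using Ni–NTA, transcription factors fused N-terminally to polyhistidine and DsRed were purified after expression in E. coli BL21-CodonPlus. These were incubated at 200 nM with a blocked, double-stranded custom Agilent array for 1 h at 25 °C in a buffer containing 50 µM zinc acetate, and the array was washed. The binding signal is per-feature fluorescence intensity (arbitrary units) on an Axon 4000B scanner.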

Sequence | binding signal
CACTACTCATTCAATCACAACCCTTCACCGTTTACTTCTACGGAGTCACCTAGTGCAG | 13100 fluorescence intensity (a.u.)
ATAATAATAAACGAAATAATTATTACTCACTCCTTCCAATCGGAGTCACCTAGTGCAG | 10500 fluorescence intensity (a.u.)
AGGTAATTGTAGGGCCATATTGAACAGCACTGCATACACGCGGAGTCACCTAGTGCAG | 12100 fluorescence intensity (a.u.)
AACACCAATCACCACGTACGCCGACCAACCCCATCCACCCCGGAGTCACCTAGTGCAG | 14200 fluorescence intensity (a.u.)
GTGGCTTGATTTAACACTAAAAGTTATTTAAGCATCATATCGGAGTCACCTAGTGCAG | 6040 fluorescence intensity (a.u.)
GAACTAAACAAAGCATATGATTTGAGAGCATACCAGTCTGCGGAGTCACCTAGTGCAG | 3230 fluorescence intensity (a.u.)
TCGCCTGATTGCTCTTGACGTCTTGCAATGATGGCGCGCTCGGAGTCACCTAGTGCAG | 47800 fluorescence intensity (a.u.)
CTGACAGATCTAAACACATGCCCTGTTTAGATCACACATACGGAGTCACCTAGTGCAG | 6900 fluorescence intensity (a.u.)
CCTGATGACGCTTTATGATGCTTATTTGTCTTCGCTGATGCGGAGTCACCTAGTGCAG | 8290 fluorescence intensity (a.u.)
GCCCGTTCAAGAACTGATAATTGAATCTCTGATTGTCTGTCGGAGTCACCTAGTGCAG | 11800 fluorescence intensity (a.u.)
ATATTCAAATTTTGATTTATGAAATTTGTTCAGAATTTACCGGAGTCACCTAGTGCAG | 4110 fluorescence intensity (a.u.)
CAAGATTAACGGACGTACGGCTCCGACTCCGAGAGGCGAGCGGAGTCACCTAGTGCAG | 3710 fluorescence intensity (a.u.)
AGCCTAATTATCCATTATTAGCACATGTGGGTTATTGTAGCGGAGTCACCTAGTGCAG | 36300 fluorescence intensity (a.u.)
GAGATCGAAATTTTCGGTTAGACTGAATGCCCACCCCTACCGGAGTCACCTAGTGCAG | 3860 fluorescence intensity (a.u.)
CAGTTAGAACTGTCAATCTCATCAGGAAATTACCCAGGAACGGAGTCACCTAGTGCAG | 7500 fluorescence intensity (a.u.)
GAAATTGAAATGTAGATATTATATTCGTCCTTCGCAACCTCGGAGTCACCTAGTGCAG | 18600 fluorescence intensity (a.u.)
ACTGACAGACAGGTAACCATACTCTGTTTTCCCCTGTTCTCGGAGTCACCTAGTGCAG | 28100 fluorescence intensity (a.u.)
GTGGGTTGAGATGATTGTTAGTAACAAAAGTTTAGTAAGACGGAGTCACCTAGTGCAG | 12600 fluorescence intensity (a.u.)
TCAACAATCAAGAAAATGGCACCAGCAATTGAAAGAAGTGCGGAGTCACCTAGTGCAG | 4470 fluorescence intensity (a.u.)
CATTCAAATTTCAATCAAACTTACAATTTTGACGTGAACTCGGAGTCACCTAGTGCAG | 29600 fluorescence intensity (a.u.)
TTTCAATTTCAATCAAACATTCAATTTTAGCGTGAACTAACGGAGTCACCTAGTGCAG | 14000 fluorescence intensity (a.u.)

Sequence | binding signal
TTTCATTTATTCATTGTGCTAATTAGCGGTCAAAATTGGTCGGAGTCACCTAGTGCAG | 11400 fluorescence intensity (a.u.)
TATATGTTAATGAATCTTGACACATATATAATAAACCGTGCGGAGTCACCTAGTGCAG | 3290 fluorescence intensity (a.u.)
TGGATTGGATTAGATAATTTCTCCAACTCAGCGTCACAAACGGAGTCACCTAGTGCAG | 17700 fluorescence intensity (a.u.)
GTAATTGAGACCCCGCCTCCATCAAACACAGCACATACGCCGGAGTCACCTAGTGCAG | 7310 fluorescence intensity (a.u.)
GCCCGACTTACTATAACATTGATTGTTATGTCACTTGTCTCGGAGTCACCTAGTGCAG | 9290 fluorescence intensity (a.u.)
TTCTTTCATCAATTACTAGGCCTAGATGGGTAATTTTGGTCGGAGTCACCTAGTGCAG | 14300 fluorescence intensity (a.u.)
ATTCAATCAATTATATATATATATATATATATATATATATCGGAGTCACCTAGTGCAG | 7480 fluorescence intensity (a.u.)
TAAACTTATTCCGAGTATTGATTGCCACATTAAGCCTGCCCGGAGTCACCTAGTGCAG | 12500 fluorescence intensity (a.u.)
CCAAATTAATCATATTGAACAGTAGAGAAATCACCTTTGTCGGAGTCACCTAGTGCAG | 14000 fluorescence intensity (a.u.)
TCAGGAAAATTGATGCATCATTGTACTCGCTAATCCTTGCCGGAGTCACCTAGTGCAG | 12100 fluorescence intensity (a.u.)
CCTAATTAATCCGTCATTAGCAAATGTTTATTGTAGCACCCGGAGTCACCTAGTGCAG | 41300 fluorescence intensity (a.u.)
TGAGTAGATGATTATAAATCACGTTGATCTTGCTGAAATTCGGAGTCACCTAGTGCAG | 9020 fluorescence intensity (a.u.)
ACTCAAATTGTTCTGGAAATGATTTATGTTCTTTTATCTGCGGAGTCACCTAGTGCAG | 11300 fluorescence intensity (a.u.)
GAAACAGATTATTGAGCGAATTGTTTCTATAGATTATCTACGGAGTCACCTAGTGCAG | 5530 fluorescence intensity (a.u.)
AATCTAAATTGAATATATTTTGATAATATGTTTGTTTTGTCGGAGTCACCTAGTGCAG | 20000 fluorescence intensity (a.u.)
GTGTGTCCCTTTAGCTTAATTTGCAGCTAATTCAATCTCACGGAGTCACCTAGTGCAG | 4870 fluorescence intensity (a.u.)
TAAACAAGCCCTTTAATTAATTAACTATCTTGGCAACTCCCGGAGTCACCTAGTGCAG | 13500 fluorescence intensity (a.u.)
CAGTAATTTACGTTTAATACTCTTAAATAACGAGATTCCGCGGAGTCACCTAGTGCAG | 9250 fluorescence intensity (a.u.)
GGTGATCGATAATTCCCGAGATGTTGTAAGACGACACATACGGAGTCACCTAGTGCAG | 4320 fluorescence intensity (a.u.)
ATCGATCGTAATTACGTTAGGGCAAATTCTAGTCATCTATCGGAGTCACCTAGTGCAG | 9480 fluorescence intensity (a.u.)
CGCGTTGTTAATTAAACCCCGGACAGATTGCATAATCACTCGGAGTCACCTAGTGCAG | 17900 fluorescence intensity (a.u.)

Source: paper PMC7819943, “Rice protein-binding microarrays: a tool to detect cis-acting elements near promoter regions in rice”
